{"source": "paper PMC4336329", "about": "(PLoS ONE, 2015)", "note": "The campaign covered roughly 310,000 compounds. About 14,000 (4.5%) showed an effect of 50% or more. The effect is printed as a negative number. This is one part of the list.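 Note: peak tail current of the secondary pulse compared with the same well before compound.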"}
{"biological_target": "human ether-à-go-go-related gene (hERG) potassium channel (human, UniProt Q12809)", "sequence (Q12809 whole entry, looked up)": "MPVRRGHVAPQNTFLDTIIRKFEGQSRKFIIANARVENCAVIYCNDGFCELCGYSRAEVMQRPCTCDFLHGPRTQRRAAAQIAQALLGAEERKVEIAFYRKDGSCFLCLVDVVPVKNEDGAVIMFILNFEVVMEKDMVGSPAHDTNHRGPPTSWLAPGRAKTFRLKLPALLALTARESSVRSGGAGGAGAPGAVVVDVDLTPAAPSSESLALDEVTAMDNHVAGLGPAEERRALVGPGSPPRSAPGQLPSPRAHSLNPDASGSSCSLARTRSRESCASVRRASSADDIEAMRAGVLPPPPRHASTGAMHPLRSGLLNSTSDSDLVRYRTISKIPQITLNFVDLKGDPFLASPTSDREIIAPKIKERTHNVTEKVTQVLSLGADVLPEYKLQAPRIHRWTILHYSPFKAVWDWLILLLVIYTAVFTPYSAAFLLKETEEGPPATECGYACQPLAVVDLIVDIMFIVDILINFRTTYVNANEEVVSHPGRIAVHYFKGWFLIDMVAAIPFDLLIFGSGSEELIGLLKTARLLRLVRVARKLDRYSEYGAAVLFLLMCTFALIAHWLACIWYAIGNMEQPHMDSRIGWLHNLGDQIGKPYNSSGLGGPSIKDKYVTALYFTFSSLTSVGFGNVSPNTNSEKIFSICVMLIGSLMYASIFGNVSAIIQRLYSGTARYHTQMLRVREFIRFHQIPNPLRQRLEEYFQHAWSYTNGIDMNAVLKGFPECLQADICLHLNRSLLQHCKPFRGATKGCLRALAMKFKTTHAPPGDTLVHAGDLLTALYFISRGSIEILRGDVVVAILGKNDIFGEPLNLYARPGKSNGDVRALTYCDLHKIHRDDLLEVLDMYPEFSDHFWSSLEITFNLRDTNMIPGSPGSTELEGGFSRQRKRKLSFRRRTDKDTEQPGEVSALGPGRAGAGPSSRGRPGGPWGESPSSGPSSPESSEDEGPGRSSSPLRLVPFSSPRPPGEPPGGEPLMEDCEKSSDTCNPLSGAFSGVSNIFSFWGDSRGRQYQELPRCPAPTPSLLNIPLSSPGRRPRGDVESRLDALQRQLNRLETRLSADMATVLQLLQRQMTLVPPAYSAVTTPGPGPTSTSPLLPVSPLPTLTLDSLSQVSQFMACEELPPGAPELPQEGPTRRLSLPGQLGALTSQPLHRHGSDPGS", "assay": "primary screen, population patch clamp on CHO cells stably expressing hERG", "units": {"hERG current change (%, negative = inhibition) at 10uM": "%"}}
{"smiles": "Cc1cc(NC(=O)CSc2nc(N)c(NC(=O)c3ccco3)c(=O)[nH]2)no1", "hERG current change (%, negative = inhibition) at 10uM": 19.2}
{"smiles": "COc1ccc(C)cc1NC(=O)c1sc2ncn(CC(=O)N3CCCCC3)c(=O)c2c1C", "hERG current change (%, negative = inhibition) at 10uM": 9.03}
{"smiles": "COc1cccc(OC(C)c2ccnc3nc(/N=C/N(C)C)nn23)c1", "note": "(stereo not drawn)", "hERG current change (%, negative = inhibition) at 10uM": 11.6}
{"smiles": "Cc1onc(-c2ccccc2)c1C(=O)N(CC(C)C)c1c(N)n(CC(C)C)c(=O)[nH]c1=O", "hERG current change (%, negative = inhibition) at 10uM": -3.18}
{"smiles": "Cc1noc(C)c1COC(=O)C1(c2cccc(F)c2)CCCC1", "hERG current change (%, negative = inhibition) at 10uM": -1.86}
{"smiles": "Cc1ccc2c(c1)c1c(n2CC(O)CN2C(=O)CNC2=O)C(=O)CCC1", "note": "(stereo not drawn)", "hERG current change (%, negative = inhibition) at 10uM": -24.3}
{"smiles": "CCC(C)c1ccc(OCCn2ccnc2)cc1.O=C(O)C(=O)O", "note": "(stereo not drawn)", "hERG current change (%, negative = inhibition) at 10uM": -9.93}
{"smiles": "O=C(CCc1c[nH]c2ccccc12)NCCc1ccc2c(c1)OCCO2", "hERG current change (%, negative = inhibition) at 10uM": 13.6}
{"smiles": "Cc1ccccc1C(=O)N[C@H](C(=O)Nc1ccc(Cl)c(Cl)c1)C(C)C", "hERG current change (%, negative = inhibition) at 10uM": 15.8}
{"smiles": "O=c1oc(-c2ccco2)nc2sc3c(c12)CCCCC3", "hERG current change (%, negative = inhibition) at 10uM": 11.9}
{"smiles": "COCCNC(=S)Nc1ccccn1", "hERG current change (%, negative = inhibition) at 10uM": 15.3}
{"smiles": "COc1ccc(C(CCN2CCCC2)c2c(OC)cc(OC)c3c(-c4ccccc4)cc(=O)oc23)cc1", "note": "(stereo not drawn)", "hERG current change (%, negative = inhibition) at 10uM": -52.7}
{"smiles": "COc1ccc(C(=O)C2CCN(C(=S)NCCc3ccc(OC)c(OC)c3)CC2)cc1", "hERG current change (%, negative = inhibition) at 10uM": -7.6}
{"smiles": "CC(NCc1ccc(S(N)(=O)=O)cc1)C(=O)N1c2ccccc2CC1C.O=C(O)C(=O)O", "note": "(stereo not drawn)", "hERG current change (%, negative = inhibition) at 10uM": -3.54}
{"smiles": "CCCn1c(O)c(N=NC(=O)CNC(=O)/C=C/c2ccc(OC)cc2)c2ccccc21", "hERG current change (%, negative = inhibition) at 10uM": -26.1}
{"smiles": "CCOc1ccc(C(C)=O)cc1Cn1ccsc1=N.Cl", "hERG current change (%, negative = inhibition) at 10uM": 12.3}
{"smiles": "C=CCC(=O)NC(C)c1cnn(-c2ccccc2C)c1C", "note": "(stereo not drawn)", "hERG current change (%, negative = inhibition) at 10uM": 5.38}
{"smiles": "COc1ccc(CNC(=O)C2CSCCS2)cc1", "note": "(stereo not drawn)", "hERG current change (%, negative = inhibition) at 10uM": 12.4}
{"smiles": "CCCCCCCCCCC[N+](C)(C)CC/C=C1/c2ccccc2Sc2ccc(Cl)cc21.[Br-]", "hERG current change (%, negative = inhibition) at 10uM": -32.8}
{"smiles": "Cc1cc(NC(=O)c2cc(-c3ccncc3)nc3c(C)cccc23)no1", "hERG current change (%, negative = inhibition) at 10uM": 7.44}
{"smiles": "CS(=O)(=O)N(CC(=O)N1CCCCCC1)c1cccc([N+](=O)[O-])c1", "hERG current change (%, negative = inhibition) at 10uM": -32.7}
{"smiles": "COC(=O)c1cc(OC)c(OC)cc1NC(=O)c1cccc(OC)c1OC", "hERG current change (%, negative = inhibition) at 10uM": -0.352}
{"smiles": "O=C(c1cc2nc(-c3ccc(F)cc3)cc(C(F)(F)F)n2n1)N1CCCCC1c1cccnc1", "note": "(stereo not drawn)", "hERG current change (%, negative = inhibition) at 10uM": -80.2}
{"smiles": "O=C(Nc1cccc(-c2ccc(N3CCOCC3)nn2)c1)c1ccc(Cl)cc1", "hERG current change (%, negative = inhibition) at 10uM": -3.12}
{"smiles": "COc1ccccc1C(=O)Nc1ccc(S(=O)(=O)Nc2cc(C)nc(C)n2)cc1", "hERG current change (%, negative = inhibition) at 10uM": 6.3}
{"smiles": "CC1=C(C(=O)Nc2ccccc2)C(c2cccs2)C(C#N)=C(SCC#N)N1", "note": "(stereo not drawn)", "hERG current change (%, negative = inhibition) at 10uM": -1.93}
{"smiles": "Cc1ccc(C(OC(=O)c2ccco2)C(=O)NCc2cccs2)cc1", "note": "(stereo not drawn)", "hERG current change (%, negative = inhibition) at 10uM": 12.1}
{"smiles": "CCOC(=O)C1=C(COC(=O)c2cc(OC)c(OC)c(OC)c2)NC(=O)NC1C", "note": "(stereo not drawn)", "hERG current change (%, negative = inhibition) at 10uM": 5.35}
{"smiles": "CCOc1cccc2sc(N(CCN(C)C)C(=O)c3ccc4ccccc4c3)nc12.Cl", "hERG current change (%, negative = inhibition) at 10uM": -51.5}
{"smiles": "Cc1ccc(C2CC(c3cccs3)=NN2C(=O)c2ccc(Br)o2)cc1", "note": "(stereo not drawn)", "hERG current change (%, negative = inhibition) at 10uM": 4.28}
{"smiles": "CCOC(=O)/C(C#N)=C\\c1ccc(O)c(OC)c1", "hERG current change (%, negative = inhibition) at 10uM": 8.1}
{"smiles": "COc1ccc(NS(=O)(=O)c2cc(OCC(N)=O)c(C)cc2Cl)cc1", "hERG current change (%, negative = inhibition) at 10uM": 1.91}
{"smiles": "CC1=C(C(=O)Nc2ccccc2)C(c2ccc(C)o2)n2ncnc2N1", "note": "(stereo not drawn)", "hERG current change (%, negative = inhibition) at 10uM": 11.7}
{"smiles": "Clc1ccccc1CN(Cc1ccccc1)C(c1cccs1)c1nnnn1C1CCCC1", "note": "(stereo not drawn)", "hERG current change (%, negative = inhibition) at 10uM": 9.73}
{"smiles": "Cc1ccc2c(c1)N(CC(=O)NCCCN1CC(C)CC(C)C1)C(=O)c1cccnc1O2", "note": "(stereo not drawn)", "hERG current change (%, negative = inhibition) at 10uM": -4.44}
{"smiles": "COC(=O)c1cc(OC)c(OC)cc1NC(=S)Nc1cccc(C(C)=O)c1", "hERG current change (%, negative = inhibition) at 10uM": 6.36}
{"smiles": "CCC(c1nnnn1CCOC)N1CCN(c2cccc(C(F)(F)F)c2)CC1.Cl", "note": "(stereo not drawn)", "hERG current change (%, negative = inhibition) at 10uM": -23.2}
{"smiles": "Cc1noc(C)c1COc1cccc(C(=O)OC(C)C#N)c1", "note": "(stereo not drawn)", "hERG current change (%, negative = inhibition) at 10uM": 3.98}
{"smiles": "COc1ccc(NC(=O)c2cc(S(=O)(=O)Nc3ccc(OC)cc3)cs2)cc1", "hERG current change (%, negative = inhibition) at 10uM": -3.01}
{"smiles": "CCC1(C(=O)c2ccccc2)C(c2cccc([N+](=O)[O-])c2)C1(C(=O)OC)C(=O)OC", "note": "(stereo not drawn)", "hERG current change (%, negative = inhibition) at 10uM": 4.51}
{"smiles": "O=C1c2cccc3c([N+](=O)[O-])ccc(c23)C(=O)N1c1nccs1", "hERG current change (%, negative = inhibition) at 10uM": -2.83}
{"smiles": "O.OC[C@@H](O)[C@@H](O[C@@H]1O[C@H](CO)[C@H](O)[C@H](O)[C@H]1O)[C@H](O)[C@@H](O)CO", "hERG current change (%, negative = inhibition) at 10uM": 18}
{"smiles": "CCOC(=O)C1CCN(S(=O)(=O)c2ccc3c(c2)CCCN3C(C)=O)CC1", "hERG current change (%, negative = inhibition) at 10uM": -29.8}
{"smiles": "Cc1ccc(S(=O)(=O)NC(CC(C)C)C(=O)Nc2ccncc2)cc1", "note": "(stereo not drawn)", "hERG current change (%, negative = inhibition) at 10uM": 8.27}
{"smiles": "O=C(NC1CCN(Cc2ccc(F)cc2)CC1)c1ccccc1", "hERG current change (%, negative = inhibition) at 10uM": -50.2}
{"smiles": "Nc1nc(SCC(=O)NC2CCCCCC2)[nH]c(=O)c1-c1ccccc1", "hERG current change (%, negative = inhibition) at 10uM": 1.87}
{"smiles": "Cc1ccc(S(=O)(=O)N(C)CC(=O)Nc2cccnc2)cc1", "hERG current change (%, negative = inhibition) at 10uM": 15.4}
{"smiles": "COc1cccc(NC(=O)CSc2nccn2-c2cccc(OC)c2)c1", "hERG current change (%, negative = inhibition) at 10uM": 2.22}
{"smiles": "N#Cc1c(N)n[nH]c1Cc1cccc2ccccc12", "hERG current change (%, negative = inhibition) at 10uM": 12.3}
{"smiles": "O=C1OC2(CCCC2)OC(=O)C1=Cc1c[nH]c2ccccc12", "hERG current change (%, negative = inhibition) at 10uM": 2.88}
{"smiles": "O=C1c2ccccc2N(Cc2ccc(Cl)cc2)C2=NCCN12", "hERG current change (%, negative = inhibition) at 10uM": -13.5}
{"smiles": "OCC1(Cc2ccccc2)CCCN(Cc2ccc3c(c2)OCCO3)C1", "note": "(stereo not drawn)", "hERG current change (%, negative = inhibition) at 10uM": -24.6}
{"smiles": "CN(C)CCCN1C(=O)c2oc3ccc(Cl)cc3c(=O)c2C1c1cccnc1", "note": "(stereo not drawn)", "hERG current change (%, negative = inhibition) at 10uM": -13.4}
{"smiles": "CCOc1ccc(NC(=O)Cc2c(O)c3ccccc3[nH]c2=O)cc1", "hERG current change (%, negative = inhibition) at 10uM": 11.2}
